{"source": "the supplement of paper PMC4206461", "note": "The list shows a part of the results."}
{"test_system": "Pseudomonas aeruginosa PA14 dppA1-A5 penta deletion mutant", "experiment": "respiration area under curve with compound as sole nitrogen source, 24 h (OmniLog AUC (arbitrary units)); higher = more respiration / better utilisation as nitrogen source, active = 2000 or more; extreme values may be limits of the assay", "conditions": "plate: PM6", "description": "(§1)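 Biolog Phenotype MicroArray plates PM6-PM8: each di/tripeptide is the sole nitrogen source. Tetrazolium reduction was read in the OmniLog for 24 h at 37°C and summarised as area under the respiration curve (arbitrary units). Values below 2000 count as no respiration.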"}
{"smiles": "NC(N)=NCCC[C@H](N)C(=O)N[C@@H](Cc1ccccc1)C(=O)O", "respiration area under curve": "active: 9720"}
{"smiles": "NC(N)=NCCC[C@H](N)C(=O)N[C@@H](CO)C(=O)O", "respiration area under curve": "active: 9420"}
{"smiles": "C[C@H](NC(=O)[C@@H](N)CCCN=C(N)N)C(=O)O", "respiration area under curve": "active: 9930"}
{"smiles": "NCC(=O)N[C@@H](Cc1ccccc1)C(=O)O", "respiration area under curve": "inactive: 689"}
{"smiles": "C[C@H](N)C(=O)N[C@@H](C)C(=O)O", "respiration area under curve": "active: 6930"}
{"smiles": "CC[C@H](C)[C@H](N)C(=O)N[C@@H](Cc1c[nH]c2ccccc12)C(=O)O", "respiration area under curve": "inactive: 1630"}
{"smiles": "CC[C@H](C)[C@H](N)C(=O)N[C@@H](Cc1ccc(O)cc1)C(=O)O", "respiration area under curve": "inactive: 632"}
{"smiles": "N[C@@H](CC(=O)O)C(=O)N[C@@H](Cc1c[nH]c2ccccc12)C(=O)O", "respiration area under curve": "active: 2450"}
{"smiles": "CSCCC(NC(=O)C(N)CC(C)C)C(=O)O", "note": "(stereo not given)", "respiration area under curve": "inactive: 1800"}
{"smiles": "CC[C@H](C)[C@H](N)C(=O)N[C@@H](C)C(=O)O", "respiration area under curve": "inactive: 676"}
{"smiles": "CC(C)[C@H](NC(=O)[C@@H](N)CCCN=C(N)N)C(=O)O", "respiration area under curve": "active: 8810"}
{"smiles": "NC(N)=NCCC[C@H](N)C(=O)N[C@@H](Cc1ccc(O)cc1)C(=O)O", "respiration area under curve": "active: 9880"}
{"smiles": "CSCC[C@H](NC(=O)CN)C(=O)O", "respiration area under curve": "inactive: 0"}
{"smiles": "NCC(=O)N[C@@H](CCCN=C(N)N)C(=O)O", "respiration area under curve": "active: 8670"}
{"smiles": "CC[C@H](C)[C@H](N)C(=O)NCC(=O)O", "respiration area under curve": "inactive: 388"}
{"smiles": "NC(N)=NCCC[C@H](N)C(=O)N[C@@H](CCC(=O)O)C(=O)O", "respiration area under curve": "active: 9880"}
{"test_system": "Pseudomonas aeruginosa PA14 dppA1-A5 penta deletion mutant", "experiment": "respiration area under curve with compound as sole nitrogen source, 24 h (OmniLog AUC (arbitrary units)); higher = more respiration / better utilisation as nitrogen source, active = 2000 or more; extreme values may be limits of the assay", "conditions": "plate: PM7", "description": "as §1"}
{"smiles": "N[C@@H](CO)C(=O)NCC(=O)O", "respiration area under curve": "active: 2330"}
{"smiles": "CSCC[C@H](N)C(=O)N1CCC[C@H]1C(=O)O", "respiration area under curve": "inactive: 31.9"}
{"smiles": "O=C(O)[C@H](Cc1ccc(O)cc1)NC(=O)[C@@H]1CCCN1", "respiration area under curve": "active: 10100"}
{"smiles": "N[C@@H](Cc1ccccc1)C(=O)N1CCC[C@H]1C(=O)O", "respiration area under curve": "inactive: 0"}
{"smiles": "CC[C@H](C)[C@H](NC(=O)[C@@H](N)C(C)C)C(=O)O", "respiration area under curve": "active: 4330"}
{"smiles": "CC(C)[C@H](NC(=O)[C@@H](N)CO)C(=O)O", "respiration area under curve": "active: 4040"}
{"smiles": "C[C@H](NC(=O)[C@@H](N)[C@@H](C)O)C(=O)O", "respiration area under curve": "active: 4340"}
{"smiles": "CSCC[C@H](NC(=O)[C@@H](N)[C@@H](C)O)C(=O)O", "respiration area under curve": "inactive: 1260"}
{"smiles": "CC(C)C[C@H](N)C(=O)N[C@H](C(=O)O)C(C)C", "respiration area under curve": "active: 9740"}
{"smiles": "CC(C)C[C@H](NC(=O)[C@@H](N)Cc1ccc(O)cc1)C(=O)O", "respiration area under curve": "active: 6690"}
{"smiles": "CC(C)[C@H](N)C(=O)NCC(=O)O", "respiration area under curve": "inactive: 1070"}
{"smiles": "O=C(O)[C@@H]1C[C@@H](O)CN1C(=O)[C@@H]1CCCN1", "respiration area under curve": "inactive: 0"}
{"smiles": "N[C@@H](Cc1c[nH]c2ccccc12)C(=O)N[C@@H](CO)C(=O)O", "respiration area under curve": "inactive: 938"}
{"test_system": "Pseudomonas aeruginosa PA14 dppA1-A5 penta deletion mutant", "experiment": "respiration area under curve with compound as sole nitrogen source, 24 h (OmniLog AUC (arbitrary units)); higher = more respiration / better utilisation as nitrogen source, active = 2000 or more; extreme values may be limits of the assay", "conditions": "plate: PM8", "description": "as §1"}
{"smiles": "NCC(=O)N[C@@H](Cc1ccccc1)C(=O)N[C@@H](Cc1ccccc1)C(=O)O", "respiration area under curve": "active: 4510"}
{"smiles": "CC(C)C(N)C(=O)NC(CO)C(=O)O", "note": "(stereo not given)", "respiration area under curve": "inactive: 1090"}
{"smiles": "C[C@@H](N)C(=O)NCC(=O)O", "respiration area under curve": "inactive: 0"}
{"smiles": "NCC(=O)N[C@H](CC(=O)O)C(=O)O", "respiration area under curve": "inactive: 0"}
{"smiles": "CC(C)[C@H](N)C(=O)N[C@@H](CCC(N)=O)C(=O)O", "respiration area under curve": "inactive: 1150"}
{"smiles": "N[C@@H](Cc1ccccc1)C(=O)N[C@@H](CCC(=O)O)C(=O)O", "respiration area under curve": "inactive: 0"}
{"smiles": "CC(NC(=O)C(N)CC(=O)O)C(=O)O", "note": "(stereo not given)", "respiration area under curve": "inactive: 215"}
{"smiles": "C[C@@H](O)[C@H](N)C(=O)N[C@@H](CC(=O)O)C(=O)O", "respiration area under curve": "inactive: 13.9"}
{"smiles": "CSCC[C@H](N)C(=O)N[C@H](C(=O)O)[C@@H](C)O", "respiration area under curve": "inactive: 147"}
{"smiles": "CC(C)[C@H](N)C(=O)N[C@@H](CCC(=O)O)C(=O)O", "respiration area under curve": "inactive: 0"}
{"smiles": "NC(=O)CC[C@H](NC(=O)[C@@H](N)CO)C(=O)O", "respiration area under curve": "inactive: 1400"}
